Here are results for two compounds from patent publication US4990518A, “Pharmacologically active heteroaryl substituted imidazo (4,5-c) pyridines” (G. D. Searle & Co., priority 1989, dated 1991).

The term inhibition denotes the drop in the measured response relative to a control, in per cent.

The target in the test is PAF receptor (Human Platelet Membrane Receptors) (Homo sapiens, UniProt P25105). The experiment in a line: Inhibition of ^3 H-PAF Binding to Human Platelet Membrane Receptors. The following applies: read-out: Inhibition of ^3 H-PAF Binding to Human Platelet (% Inhib.). The method, then:
Inhibition of ^3 H-PAF Binding to Human Platelet Membrane Receptors
Receptor Preparation: Ten units of in-dated human packed platelets, each containing 45-65 ml platelet rich-plasma, were purchased from a commercial blood bank. Disposable plasticware was used throughout for receptor preparation. The units were pooled and a 1 ml aliquot was removed for determination of platelet concentration, using a Coulter Counter. […] Protein content was determined by a fluorescamine protein assay.
Assay Methods: Receptor Characterization--Each receptor preparation was evaluated to determine the number of receptor populations, the number of PAF receptor equivalents/mg protein and the dissociation constant (KD) for PAF binding. This required 2-3 experiments in which the protein concentration was held constant and the ^3 H-PAF ligand concentration was varied from approximately 0.10-2.5 nM and the data was analyzed by Scatchard methodology. […]
Assay Methods: Routine Assay of Compounds--The compounds were weighed precisely and solubilized in quantities of DMSO such that a 5 μl aliquot in the incubate would deliver the desired compound concentration. Compounds tested for the first time in this assay were evaluated at a concentration of 50 μM in the incubation medium. […]

Sequence of UniProt P25105 (P25105 whole entry): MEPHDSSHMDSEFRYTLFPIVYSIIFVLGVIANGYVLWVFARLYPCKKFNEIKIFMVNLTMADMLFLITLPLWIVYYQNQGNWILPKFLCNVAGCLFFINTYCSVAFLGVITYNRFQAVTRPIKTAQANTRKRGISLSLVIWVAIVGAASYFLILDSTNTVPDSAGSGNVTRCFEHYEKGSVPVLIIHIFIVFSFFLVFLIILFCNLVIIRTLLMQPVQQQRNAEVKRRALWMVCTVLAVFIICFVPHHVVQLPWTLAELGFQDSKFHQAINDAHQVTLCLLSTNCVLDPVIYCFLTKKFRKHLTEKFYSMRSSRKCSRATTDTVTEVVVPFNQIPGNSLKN

`CN(C(=O)c1ccc(Cn2ccc3ncnc-3c2)o1)C1CCCCC1` [Example 2, N-cyclohexyl-5-[(5H-imidazo[4,5-c]pyridin-5-yl)methyl]N-methyl-2-furancarboxamide]: the inhibition at 50 µM was found to be 42%.

Consider `O=C(c1ccc(Cn2ccc3ncnc-3c2)o1)N(C1CCCCC1)C1CCCC1` [Example 3], for which the inhibition at 50 µM lay in the range of 37 to 62%.
